# Laboratory results from the supplement of paper PMC11417369.
# ± gives the standard deviation of the averaged measurements. Some of the results follow.
# System: PfAP2-G AP2 domain (GST-tagged)
# Test: gcPBM binding intensity (ln(normalized median fluorescence intensity)); higher = stronger DNA binding
# Procedure, shortened: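 DNA-binding domains from P. falciparum, fused to GST and produced in E. coli, were put on an Agilent 4 × 180k double-stranded probe array for 1 h in 1× PBS holding 1% milk, 0.2 mg/ml BSA, 0.5% salmon testes DNA and 0.03% Triton X-100. Probes were primer-extended, 36 bp long and drawn from intergenic genomic regions, with negative controls included. After Alexa488 anti-GST antibody detection and a 488 nm scan, binding intensity was set as the highest Masliner-normalised natural-log median intensity across replicate spots of either probe orientation.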
row,Sequence,gcPBM binding intensity (ln)
1,ATATATATATATATATGTACATATTTACATTTTGTA [XGTACX_site3529],11.1 ± 0.54
2,ATAAAAAAAAGAAAAACACACACATATATATATATA [CACACA_site8243],10 ± 0.64
3,ATAATAATAGTAATATGTACATATATATATATATAT [XGTACX_site7437],11.2 ± 0.45
4,ATCAACATTATGTTTAGTACTTAGTGAATTGTTAAT [XGTACX_site4913],10.6 ± 0.31
5,AAGATGAACCTTTACACATGCAACAAAAAATATACA [TGCATGCA_site166],10.1 ± 0.11
6,ATTCTCCATGTTTGATGTACTCATATGACGACGGAG [XGTACX_site4923],11.4 ± 0.77
7,TTCTTATATTGTACAGTACACACCTTTATAATGTTA [CACACA_site7953],11.4 ± 0.81
8,ATATAAATAACGTGTACACACATATGTATTTATATA [CACACA_site6520],11.6 ± 0.89
9,TTCTAAATTAATAATACACACTTGCTAAAATCATTA [CACACA_site5733],9.805 ± 0.078
10,TTTATTTTATCATTTGCACACGCACCCCCACATAAA [CACACA_site8007],11.2 ± 0.77
11,AATACTTACCAAAATACACACACACCCAAAATATAT [CACACA_site8559],10.4 ± 0.29
12,AATATTTCTATATGAACATGCAATGTATCTTTTTAT [TGCATGCA_site738],9.875 ± 0.021
13,TTTTTATGATTATACTTATATAATTTCATGATTGAA [CACACA_negctrl_site228],9.64 ± 0.042
14,AGATATATAAAATATACACACAGTAATATTTATATA [CACACA_site6767],9.665 ± 0.092
15,ATATATATCTACATATGTACATATATACATTACACA [XGTACX_site7210],11 ± 0.56
16,ATTTCATATGGTCAACGTACTCATGCATCCCTCCTT [XGTACX_site437],11.3 ± 0.87
17,ATTTTTATTTTATATACACACAATAATACTAGAATA [CACACA_site7810],10.2 ± 0.23
18,AATTATATTTGAAATACACACATAAAAACCATATAG [CACACA_site7598],10.3 ± 0.18
19,TCAAAAAAGACACACCGTACATACTATTTGGACAGG [XGTACX_site7699],10.8 ± 0.4
20,ATATTTATATTTATGTGTACATATGAAATAATTATT [XGTACX_site7765],11.5 ± 0.72
21,TAATATATTATGAGGGGTACATAATATGGTTTATTG [XGTACX_site8301],11.4 ± 0.86
22,ATATCTTATATCTTCACACATACACAATAAATACAT [CACACA_site5028],10.2 ± 0.16

row,Sequence,gcPBM binding intensity (ln)
1,CTAAGAAGTATTTACACACCAACAAGGCGAAAAAAA [CACACA_site2945],10.4 ± 0.52
2,AATGTATTCTCTCATGCACACTTTCTTTAAGGGACC [CACACA_site5245],10.19 ± 0.085
3,TAAGATGATATAGACTGTACATATTGAACTTACAAG [XGTACX_site4290],10.9 ± 0.41
4,ATTCATATTAAATATATATATATATATATATATATA [CACACA_negctrl_site484],9.84 ± 0.64
5,GTTTTTAAATATGCCATACACACTACTATATAATAA [CACACA_site1927],10.1 ± 0.3
6,TAATATATTAATTTTTGTACTTAATTATATGTTTTT [XGTACX_site5654],10.9 ± 0.63
7,GAAGAAAAAGAAAAAAGTACATATATTATATTATAA [XGTACX_site7870],11.5 ± 1
8,GTTGAAAATACAGAACGTACACGTTTGCCATATTGT [XGTACX_site2254],11.4 ± 1.1
9,TTTTTTTTTTTTAGAGTACACACTTTTTTACATTTA [CACACA_site3836],11.4 ± 0.83
10,ATATGATTTATAAAGTGTACCTTATTATAAGAAACA [XGTACX_site7914],11.2 ± 0.67
11,TATGAAATGCTCCAATCACACATGAATGTAATATAT [CACACA_site5458],9.765 ± 0.035
12,ACTTTTATTATTTATATACACACTTGCTGAAATGTT [CACACA_site3637],10.26 ± 0.092
13,AGTTATAAAATATTTGCATGTAAATATATTATCTAT [TGCATGCA_site1015],9.715 ± 0.021
14,AATTTTCTACAAATGTGTACTAAATAAAATATTACT [XGTACX_site7175],11.4 ± 0.9
15,AGAATATAATTTTTATGTACATATATTAAATATATT [XGTACX_site8521],11.2 ± 0.59
16,CACAAAAATAAACACACACACATATATATATATATA [CACACA_site4704],10 ± 0.35
17,ACAATGAGGATATATACACACATACATTAAAAAAAT [CACACA_site6955],10.2 ± 0.23
18,TTTTTCTGTTCTTTTTGTACTTAAATATATTTATTT [XGTACX_site5658],11.2 ± 0.69
19,ATGTGTGTATTTTATAGTACAGTTACAAGCATTTTT [XGTACX_site6351],11.3 ± 0.75
20,AAAAAAGAAAAAAGGACACACATAAATATACACCCG [CACACA_site5590],11.3 ± 0.91
21,AAATATAAATAAAGATGTACATTATCTATATGTGAT [XGTACX_site4863],11.1 ± 0.59
22,ATATAATTTGTTATACTAACTTTTTAATTATTGATA [GTGCAC_negctrl_site443],9.715 ± 0.021
